# The campaign covered roughly 340,000 compounds. About 12,000 (3.5%) were called active. This list was built around the results that the source calls inconclusive (neither active nor inactive); the mix of calls is not that of the screen. Calls come from the whole dose curve; as a rule, active = well fitted inhibition curve with a large enough effect; inconclusive = small, poorly fitted or top-dose-only effect, or another doubt; inactive = no such curve, though single readings can be large or run the other way. No potency is given beside an inconclusive call; the fits are too rough.
# Assay: qHTS Assay for Inhibitors of Hepatitis C Virus (HCV)
# Details: Huh7.5.1 HCVcc-Cre (HCVcc is cell-culture hepatitis C virus) infection, luciferase reporter, 44 h; activity change, negative = inhibition: at 41.8 µM (top of the series)
# How it was run: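 Cells seeded at 1,000/well and cultured 4 h, then compounds added followed by HCVcc-Cre virus (~0.5 moi). After 44 h further culture, luciferase substrate was added, plates held 15 min at room temperature, and luminescence read for 15 sec.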
# % is set by controls: 0 for no effect and ±100 for the full control effect; potency is the fitted concentration of half-maximal effect; tags give direction and shape of the fitted curve.
Structure (SMILES),Potency,"activity change, negative = inhibition"
CCn1c2ccccc2c2cc(NC(=O)C3CCN(S(=O)(=O)c4cccs4)CC3)ccc21,active: 3.98 µM,–
O=C(CSc1nc2ccccc2n1CC(=O)N1CCCC1)NCc1ccc2c(c1)OCO2,inactive,–
O=C(Cn1cccc1C(=O)c1ccccc1)NCCC1=CCCCC1,inactive,–
COc1cc(NC(=O)c2ccccc2)c(OC)cc1NC(=O)Cc1ccc(F)cc1,"inconclusive [inhibitor, partial curve, poor fit]",–
O=C(C1CCCN(S(=O)(=O)c2ccccc2)C1)N1CCN(c2ccc(F)cc2)CC1 (stereo unspecified),active: 20 µM,–
Cc1cccc(CC(=O)NCCS(=O)(=O)N2CCN(c3cccc(Cl)c3)CC2)c1,"inconclusive [inhibitor, single point]",–
CCCc1cc(=O)[nH]c2nnc(SCC(=O)Nc3ccc4c(c3)OCCO4)n12,inactive,–
CNC(C)C#Cc1ccc2c(=O)c3cc(C)c(C)cc3oc2c1 (stereo unspecified),–,inactive: -10.5% [at 8.37 µM]
CCN1CCN(C(=O)C2CCN(c3nnc(C)c4c(C)n(-c5ccc(C)cc5)nc34)CC2)CC1,active: 8.91 µM,–
O=C(COc1ccc(C(=O)NCC2CCCO2)cc1)Nc1cccc(C(F)(F)F)c1 (stereo unspecified),"inconclusive [inhibitor, partial curve]",–
CSc1ccc(CN2CCCC(CNC(=O)c3ccc(F)cc3)C2)cc1 (stereo unspecified),"inconclusive [inhibitor, partial curve]",–
COc1cc2c(cc1OC)/C(=C/C#N)NC(C)(C)C2,"inconclusive [inhibitor, partial curve]",–
COc1ccc(C(=O)NC(=S)Nc2ccc(Cc3ccncc3)cc2)cc1,"inconclusive [inhibitor, single point]",–
COc1ccc(OC)c(C(C)NC(=S)NC2CCCCC2)c1 (stereo unspecified),"inconclusive [inhibitor, single point]",–
COc1ccc(S(=O)(=O)N2CCCC(C(=O)NCc3ccc(F)cc3)C2)cc1 (stereo unspecified),inactive,–
CCOc1cc(CNCCCN2CCOCC2)cc(Br)c1OCC(=O)Nc1cccc(C(F)(F)F)c1,"inconclusive [inhibitor, full curve]",–
COc1cccc(NC(=O)c2cc(Cl)nnc2Cl)c1,"inconclusive [inhibitor, single point]",–
Cc1ccc(NC(=O)CSc2nc3ccc(Nc4nc(N5CCOCC5)nc(N5CCOCC5)n4)cc3s2)cc1,inactive,–
COc1ccc2[nH]c3c(c2c1)CCN1C(=O)C(CC(=O)NCC24CC5CC(CC(C5)C2)C4)C[C@H](C(=O)N(C(C)C)C(C)C)[C@@]31C (stereo partly specified),"inconclusive [inhibitor, partial curve]",–
Cc1[nH]c2ccc(C(=O)Nc3ccncc3)cc2c1C,active: 11.2 µM,–
CC(=O)Nc1ccc2c(c1)-c1ccc(F)cc1C2=O,"inconclusive [inhibitor, single point]",–
O=C(NCCCN1CCOCC1)c1ccc2c(=O)n(Cc3ccccc3)c(=S)[nH]c2c1,"inconclusive [inhibitor, partial curve]",–
O=S(=O)(Cc1ccccc1Cl)NCCc1ccccc1,inactive,–
Cc1ccc2nc3sc(C(=O)Nc4ccc(N5CCOCC5)cc4)c(N)c3cc2c1,inactive,–

Structure (SMILES),Potency,"activity change, negative = inhibition"
CN(C)c1ccc(NC(=O)c2cc3c(=O)n4ccccc4nc3n2C)cc1,"inconclusive [inhibitor, partial curve]",–
O=C(CCCN1C(=O)/C(=C/c2ccccc2Cl)SC1=S)Nc1ccccn1,"inconclusive [inhibitor, partial curve]",–
C=C(C)c1cccc(C(C)(C)NC(=O)N2CCN(c3ccccc3OC)CC2)c1,"inconclusive [inhibitor, single point]",–
O=C(Nc1nnc(-c2ccccc2)s1)c1cc(S(=O)(=O)N2CCOCC2)c(Cl)cc1Cl,"inconclusive [inhibitor, single point]",–
CN(C)c1ccnc(Oc2ccc(Cl)cc2)c1C#N,inactive,–
Cc1ccc(C)c(S(=O)(=O)NCc2ccc(C(=O)N3CCN(c4ccccc4)CC3)cc2)c1,"inconclusive [inhibitor, single point]",–
COc1ccc(Cl)cc1NC(=O)CN(C)C(=O)C1COc2ccccc2O1 (stereo unspecified),"inconclusive [inhibitor, single point]",–
COC(=O)c1[nH]c2ccc(C)cc2c1NC(=O)Nc1ccc(OC)cc1,"inconclusive [inhibitor, partial curve]",–
COc1ccc(/C(C)=N/NC(=S)NCc2ccco2)cc1,inactive,–
Cc1noc(C)c1CSCC(=O)N(C)CC(=O)Nc1ccccc1Br,inactive,–
COc1ccccc1NC(=O)Cn1c(C)cc(=O)c2cccc(OC)c21,"inconclusive [inhibitor, full curve]",–
Cc1ccc(OC(=O)c2c(C)nn(-c3ccccc3)c2C)cc1,–,inconclusive: -30.3% [inhibitor]
O=C(C1=C(c2ccccc2)C(=O)c2ccccc2C1=O)c1ccccc1,active: 10 µM,–
Cc1ccc(C)c(N(CC(=O)NCCc2ccccc2)C(=O)CCC(=O)Nc2ccccn2)c1,"inconclusive [inhibitor, partial curve]",–
Cc1c(C(=O)C(=O)N2CC=C(c3ccccc3)CC2)c2ccccc2n1C,"inconclusive [inhibitor, partial curve]",–
O=C(Nc1ccccc1-c1nnn(CC(=O)N2CCc3ccccc3C2)n1)C1CCC1,"inconclusive [inhibitor, partial curve]",–
Nc1cc2c(cc1Cl)-c1ccc([N+](=O)[O-])cc1C2=NO,active: 5.62 µM,–
Cc1cc(N2CCN(C/C=C/c3ccccc3)CC2)n2ncnc2n1,"inconclusive [inhibitor, full curve]",–
CCOC(=O)c1cc(CC)sc1NC(=O)COC(=O)c1cnccn1,"inconclusive [inhibitor, partial curve, poor fit]",–
Cc1cccc(OCC(=O)Nc2ccccc2-c2ccccc2)c1,"inconclusive [inhibitor, full curve, poor fit]",–
C=CCNC(=O)CN(c1ccc(OC)cc1OC)S(C)(=O)=O,inactive,–
COc1ccccc1C/C(N)=N/OC(=O)/C=C/c1ccccc1,"inconclusive [inhibitor, single point]",–
COc1cccc(-c2nnc(SCC3CNC(=O)O3)n2-c2ccc(Cl)cc2)c1 (stereo unspecified),inactive,–
COc1cc2c(cc1OC)C(C)N(C(=O)Cn1ncc3c1-c1cc(C)ccc1OC3)CC2 (stereo unspecified),"inconclusive [inhibitor, single point]",–

Structure (SMILES),Potency,"activity change, negative = inhibition"
CCN(CC(=O)NCc1cccs1)S(=O)(=O)c1ccc(F)c(F)c1F,"inconclusive [inhibitor, single point]",–
O=C(Nc1ccc(C(=O)Nc2ccccc2Cl)cc1)c1cccnc1,inactive,–
CCOc1ccc(-c2cc(C(=O)O)c3ccccc3n2)cc1,inactive,–
O=S(=O)(c1ccc(NC(=S)Nc2ccc3c(c2)OCO3)cc1)N1CCOCC1,inactive,–
C/C(=C\C(=O)c1ccc(Br)cc1)NNC(=O)c1ccc(O)cc1,inactive,–
CCOc1ncccc1C(=O)Nc1ccc(S(=O)(=O)N2CCCC2)cc1,inactive,–
O=C(CN1CCN(c2ccccc2)CC1)Nc1ccc2c(c1)OCCO2,inactive,–
O=c1c2c(ncn2C2CCCC2)n(Cc2ccccc2)c(=O)n1CCOc1ccccc1,"inconclusive [inhibitor, full curve, poor fit]",–
CCOc1cc2nc(-c3ccc(OC)c(OC)c3)nc(NCCCN3CCOCC3)c2cc1OC,"inconclusive [inhibitor, single point]",–
C=C(C)CSc1cc(C)nc2c(-c3ccccc3)c(C)nn12,"inconclusive [inhibitor, partial curve]",–
COc1cc(C#N)ccc1OCC(=O)c1ccc2c(c1)OCCO2,"inconclusive [inhibitor, single point]",–
Cc1ccc(NC(C)C(=O)N/N=C/c2ccc([N+](=O)[O-])s2)cc1 (stereo unspecified),"inconclusive [inhibitor, single point]",–
CCOc1ccccc1N1CCN(S(=O)(=O)c2cccs2)CC1,"inconclusive [inhibitor, full curve]",–
COc1ccc(C2CC(=O)C3=C(C2)Nc2ncnn2C3c2ccccc2C)c(OC)c1 (stereo unspecified),active: 3.55 µM,–
CCOC(=O)c1c(NC(=O)CSc2ncn[nH]2)sc(C)c1C,"inconclusive [inhibitor, partial curve]",–
CCCCn1c(SC(C)C(N)=O)nc2cc(C(=O)OC)ccc2c1=O (stereo unspecified),"inconclusive [inhibitor, single point]",–
Cc1cc(C)nc(SCc2nnc(SCC(=O)N3CCCc4ccccc43)n2C)n1,active: 11.2 µM,–
O=c1c2ccccc2nnn1Cc1ccc(Br)cc1,inactive,–
COc1ccc(C)cc1NC(=O)c1c(C)nn(Cc2ccccc2)c1Cl,"inconclusive [inhibitor, partial curve]",–
Cc1ccc(C)c(NS(=O)(=O)c2cc(C(=O)N3CCCC3)ccc2Cl)c1,inactive,–
CCCn1c(SCC(=O)NC2CCCCC2)nnc1-c1cccnc1,inactive,–
CCN(CC)c1ccc(N=Nc2nn(C)c(C)c2[N+](=O)[O-])cc1,"inconclusive [inhibitor, full curve]",–
COc1ccc(-n2nc3c(N4CCC(C(=O)NC5CCCCC5)CC4)nnc(C)c3c2C)cc1,"inconclusive [inhibitor, full curve, poor fit]",–
